The list shows a part of the results. At the low end of the ranking the order means little.
Target: SIX1 homeodomain (reference allele) (UniProt Q15475)
Test: universal protein binding microarray
Conditions: Universal all-10-mer PBM (8x60K, AMADID 030236), 300 nM GST-tagged protein, Alexa Fluor 488 anti-GST; buffer, salt, pH and temperature not stated; high values mean tight binding; most listed sequences are background and not binding sites; double strand, one strand shown

Row | Sequence | binding signal
1 | AGAGCACA | -0.141 E-score
2 | GAAATATA | 0.131 E-score
3 | CCGAGCAG | -0.14 E-score
4 | GTGATCAA | 0.236 E-score
5 | GAAGACCA | -0.172 E-score
6 | CGCTGAGC | -0.11 E-score
7 | ACACTGAC | 0.055 E-score
8 | AGTCTCCA | -0.0883 E-score
9 | TAACCCAA | -0.0424 E-score
10 | AGTGCTTC | -0.344 E-score
11 | GACCAACA | -0.136 E-score
12 | AGCAGAGG | -0.0574 E-score
13 | TCCACCGA | -0.119 E-score
14 | ACAGATGT | -0.103 E-score
15 | TACGAGGA | 0.0147 E-score
16 | AAACGACA | 0.104 E-score
17 | AGCACGCA | -0.267 E-score
18 | ACTACGAC | -0.0908 E-score
19 | ATCAGGTC | 0.0874 E-score
20 | GGCGGCAA | -0.106 E-score
21 | ATCGTGAC | 0.0541 E-score
22 | AACTTTAC | -0.137 E-score
23 | CTGTGCTA | -0.0255 E-score
24 | CGATAGCC | 0.287 E-score
25 | CCGACTGA | -0.0493 E-score

Row | Sequence | binding signal
26 | ATCCGACC | 0.337 E-score
27 | CAGTTCTA | 0.0456 E-score
28 | CTTAACCA | -0.147 E-score
29 | GCGTGATA | 0.437 E-score
30 | ATCCAAAT | 0.141 E-score
31 | AATTTCCG | -0.225 E-score
32 | AAATAGGT | -0.0424 E-score
33 | GCGCCTTA | -0.217 E-score
34 | ATACATCG | 0.238 E-score
35 | AGCCCGGG | -0.0909 E-score
36 | AGGCCCTA | -0.255 E-score
37 | ATGGATTG | 0.182 E-score
38 | ACGGACTG | -0.242 E-score
39 | TGCGTTAA | -0.074 E-score
40 | ATCGGTGG | 0.189 E-score
41 | TGAAGCCA | -0.235 E-score
42 | CAAAATAA | -0.0862 E-score
43 | ATACAGAA | 0.223 E-score
44 | ATTAACAC | 0.258 E-score
45 | AGGGGTTA | 0.136 E-score
46 | AAGGGCAC | -0.0535 E-score
47 | AAAGGAGC | -0.2 E-score
48 | AGAGACGC | -0.0376 E-score
49 | CTCTGAGA | 0.0369 E-score
50 | CTAAGTGA | 0.133 E-score

Row | Sequence | binding signal
51 | GGGGTACC | 0.145 E-score
52 | CGCAGTTC | -0.176 E-score
53 | AACCGTTA | -0.199 E-score
54 | ATGACTAG | -0.231 E-score
55 | GTGTTTTA | -0.162 E-score
56 | GGCGGCCA | -0.162 E-score
57 | CGGCGCAA | -0.114 E-score
58 | CACTAAGG | -0.0594 E-score
59 | ACGACGAT | 0.113 E-score
60 | ACACAAAG | -0.0461 E-score
61 | TTTAAAAA | -0.0428 E-score
62 | ACGTTTCT | -0.302 E-score
63 | AAGCTACC | -0.0689 E-score
64 | CTCGGCAG | 0.0723 E-score
65 | CATATCTA | 0.322 E-score
66 | GCTCGGCA | -0.00583 E-score
67 | ACCTGCTA | 0.228 E-score
68 | CCTGAGCA | -0.00048 E-score
69 | AGAGACTC | -0.153 E-score
70 | ATTTGCAC | -0.209 E-score
71 | AAGAGTTC | -0.0987 E-score
72 | CCCTATGC | -0.165 E-score
73 | AAATGGAT | 0.167 E-score
74 | AGCAGGGC | -0.0389 E-score
75 | ACTGGGGA | 0.0274 E-score

Row | Sequence | binding signal
76 | CATCGCAA | -0.123 E-score
77 | CCCAAGGC | -0.131 E-score
78 | CAGTGGGC | 0.0211 E-score
79 | ACAGACCA | -0.147 E-score
80 | AGTTAAAA | -0.275 E-score
81 | CCAACGCA | -0.0621 E-score
82 | CGGAGTGA | -0.0521 E-score
83 | GAAGTGGC | -0.197 E-score
84 | ACTACCGG | -0.145 E-score
85 | GTTTCAAA | -0.0624 E-score
86 | ATCGCTTC | 0.226 E-score
87 | AAATAGCA | 0.0357 E-score
88 | ACGACTAG | -0.0585 E-score
89 | CCGCAAAA | -0.115 E-score
90 | CTCGGAAA | -0.201 E-score
91 | AGGTCCCC | -0.428 E-score
92 | AACACCTA | 0.126 E-score
93 | AGATGAGA | 0.224 E-score
94 | TCTTACAA | -0.0476 E-score
95 | ATGTACGG | -0.0489 E-score
96 | ATCCGCAT | 0.37 E-score
97 | ATCAAAAC | 0.126 E-score
98 | TGACACAA | 0.0628 E-score
99 | AATTACAA | -0.297 E-score
100 | GTACACAA | -0.0464 E-score

Row | Sequence | binding signal
101 | AGAGTGAG | 0.172 E-score
102 | ACAGGAAG | -0.073 E-score
103 | CCCTGTGA | 0.0226 E-score
104 | GTTCCTTA | -0.0541 E-score
105 | GCCATCAA | -0.318 E-score
106 | TGATTGCA | -0.101 E-score
107 | ATTACCAG | -0.0925 E-score
108 | CATAGCCG | 0.0103 E-score
109 | CTCTGCGA | -0.148 E-score
110 | GGCAGAGA | -0.138 E-score
111 | AGGATTCG | 0.0478 E-score
112 | CGCGAATC | -0.0537 E-score
113 | GTAGGAAA | -0.178 E-score
114 | CCAGGTCC | -0.124 E-score
115 | CAAGGTCA | 0.0153 E-score
116 | AGCCGCTA | 0.00298 E-score
117 | GATTAATC | 0.236 E-score
118 | GTGTTTAA | -0.111 E-score
119 | AGGTTGAC | -0.1 E-score
120 | CGGTGAGA | 0.253 E-score
121 | GACTTCCA | -0.307 E-score
122 | CGTATTAG | 0.174 E-score
123 | CATGTACA | -0.217 E-score
124 | CGAGAAGA | -0.0698 E-score
125 | GATCTTTA | 0.164 E-score

Row | Sequence | binding signal
126 | GCCCTTCA | -0.102 E-score
127 | TCGATAAA | -0.142 E-score
128 | GGACTCGA | -0.039 E-score
129 | ACTTGTAG | -0.188 E-score
130 | ACTCAGCG | -0.0473 E-score
131 | CGTCAACA | -0.211 E-score
132 | GTATCGAC | 0.405 E-score
133 | TCTAAGAA | 0.072 E-score
134 | CGCACGTC | -0.143 E-score
135 | CATTAGGA | 0.144 E-score
136 | AACGGTGC | -0.077 E-score
137 | CTCTATGC | -0.0127 E-score
138 | ATACACCC | 0.391 E-score
139 | TCCGGTAA | -0.0489 E-score
140 | AGTTGGAG | 0.0105 E-score
141 | GGAGCCAA | -0.148 E-score
142 | AGTCCAAA | -0.244 E-score
143 | CCCAGCCC | -0.0899 E-score
144 | GAGCGGAC | -0.36 E-score
145 | GCCTTAAC | -0.311 E-score
146 | GCATATGC | 0.129 E-score
147 | GGGCGCGA | -0.0556 E-score
148 | CGCGTACC | -0.152 E-score
149 | ACGAGTAT | 0.248 E-score
150 | TCCGCAGA | -0.00558 E-score

Row | Sequence | binding signal
151 | AGGGCTTA | -0.088 E-score
152 | ACTGCAGC | -0.12 E-score
153 | CGGTTACA | 0.063 E-score
154 | ACGTACTC | -0.168 E-score
155 | CTTATGAA | -0.218 E-score
156 | CTTCAGGA | -0.188 E-score
157 | ATTCATCC | 0.0795 E-score
158 | AACGCCAA | -0.0829 E-score
159 | ATTGAAAA | -0.218 E-score
160 | AACTGTAG | -0.0486 E-score
161 | AACACGTA | 0.0976 E-score
162 | CACCAACG | -0.0837 E-score
163 | CTAGGCGA | 0.0285 E-score
164 | CTAGCTCA | -0.14 E-score
165 | GAGGACCA | -0.285 E-score
166 | CCATGGTA | 0.128 E-score
167 | CGGATTGC | 0.23 E-score
168 | ATCGAAAA | 0.122 E-score
169 | TGCGCTAA | -0.106 E-score
170 | CCGGATTC | 0.249 E-score
171 | GCAGTAGA | 0.0842 E-score
172 | CAACAGAG | -0.143 E-score
